Measurements taken from the supplement of paper PMC3334620.
In all, about 33,000 sequences were measured (“E-score (-0.5 to 0.5)”: median about -0.035, highest 2% from about 0.34 on). This is one part of the list.

Molecular target: T1, Mot3 (UniProt P54785)
T1 sequence: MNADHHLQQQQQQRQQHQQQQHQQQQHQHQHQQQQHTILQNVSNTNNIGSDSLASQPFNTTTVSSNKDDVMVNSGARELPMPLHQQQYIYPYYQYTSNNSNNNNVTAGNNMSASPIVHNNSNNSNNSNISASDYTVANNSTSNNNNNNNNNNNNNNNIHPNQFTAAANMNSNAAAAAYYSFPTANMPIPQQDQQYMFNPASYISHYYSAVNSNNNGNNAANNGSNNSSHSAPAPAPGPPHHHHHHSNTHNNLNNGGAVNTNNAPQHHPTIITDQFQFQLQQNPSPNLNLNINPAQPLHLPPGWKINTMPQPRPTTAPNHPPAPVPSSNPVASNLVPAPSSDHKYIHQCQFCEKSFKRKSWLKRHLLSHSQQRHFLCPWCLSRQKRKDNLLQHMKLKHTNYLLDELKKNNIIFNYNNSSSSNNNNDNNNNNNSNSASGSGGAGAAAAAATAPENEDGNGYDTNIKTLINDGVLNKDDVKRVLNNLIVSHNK
Assay: PBM E-score (8-mer binding enrichment) (E-score (-0.5 to 0.5)); higher = stronger / more preferred TF binding; most listed sequences are background and not binding sites
Conditions: protein concentration: 200 nM; construct: GST-full length
In short: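 Using PURExpress in vitro transcription/translation, GST-tagged yeast transcription factors were made in full-length or DNA-binding-domain form. These were applied at about 100-200 nM to double-stranded universal all-10-mer Agilent arrays, and bound protein was detected with fluorescent anti-GST. Scans were normalised with masliner before the Universal PBM Analysis Suite assigned E-scores to ungapped eight-base words pooled with their reverse complements.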

| Sequence | PBM E-score |
| --- | --- |
| CCTGGCAC | -0.0639 |
| AATTAGTG | 0.153 |
| CTATTAAA | -0.0103 |
| GGTTAACA | 0.334 |
| CCCGGCTA | -0.185 |
| ATTGCTGC | -0.0402 |
| CAACCCTC | -0.0831 |
| CAGGGCCG | -0.243 |
| CGGAGTCA | -0.181 |
| AGTATAAC | 0.0989 |
| ATTGTCCA | 0.0137 |
| AACAATTC | 0.0842 |
| AGGTTTAG | -0.106 |
| ATCTTAAC | 0.286 |
| CAAAAAGC | 0.00649 |
| CGCGCGGC | -0.0478 |
| CAGGTCTC | -0.115 |
| TATCCCGA | -0.12 |
| CCAGTAGA | -0.146 |
| CTAGAAGC | -0.21 |
| ATCATAAC | 0.187 |
| GGATCTTA | -0.171 |
| AGCATTCG | -0.163 |
| AGAAGCTG | -0.242 |
| ACCTTAGA | -0.00904 |

| Sequence | PBM E-score |
| --- | --- |
| AGTAGAAC | 0.0685 |
| AGGATGCC | 0.0353 |
| ACAGATTA | 0.0401 |
| CGTAGCCC | -0.0561 |
| AAGGGCCT | -0.0702 |
| GAAACCGC | 0.00318 |
| AATGTTGG | 0.0946 |
| ATTTAACG | 0.247 |
| ACGTATCT | 0.0264 |
| CCAATGCC | -0.194 |
| ATCGATTA | 0.283 |
| GCACTACA | 0.138 |
| GGGGCTGA | -0.157 |
| TCGGAACA | 0.056 |
| ATGACACC | 0.0508 |
| ACTCCTAG | 0.0568 |
| AGAGTCGC | -0.307 |
| AATGGACG | 0.0267 |
| GAGCGTCC | -0.0545 |
| AGCTCCGC | -0.0949 |
| AACAAGAC | 0.221 |
| ACTAACGC | 0.0511 |
| CGGTACAC | 0.00913 |
| GACTGATA | -0.216 |
| GGGCATCA | -0.23 |

| Sequence | PBM E-score |
| --- | --- |
| AACGGCGA | -0.179 |
| ACTGAACC | 0.0727 |
| CTGATGTC | -0.068 |
| AATATCTG | -0.168 |
| CACTGGGA | -0.196 |
| TAGTTCCA | 0.00515 |
| ATTCTTCA | -0.0854 |
| AATGGTGC | -0.0241 |
| AGGGGGGA | -0.295 |
| CAACGCCC | -0.205 |
| CGGCTTGA | -0.0404 |
| TAAACAAA | 0.128 |
| AAATTCGC | 0.0676 |
| CCTTAATC | -0.0121 |
| CGCTGCTC | -0.116 |
| CTTTGGAA | 0.00498 |
| CGGATATA | -0.014 |
| CCGACAGG | -0.0527 |
| CAATACAG | -0.00728 |
| ATCGCGTG | 0.165 |
| CTACAATC | 0.252 |
| GGCCAGTA | -0.167 |
| AGATCCCG | -0.122 |
| CGATCAGC | -0.152 |
| AAGGTTAG | 0.0365 |

| Sequence | PBM E-score |
| --- | --- |
| ACTCTCAA | -0.069 |
| AGGCTACA | 0.217 |
| CGTATTTA | 0.264 |
| CAGGGCCC | -0.283 |
| AATGTTAT | 0.238 |
| ACCACCCC | -0.137 |
| ACTTAAAG | 0.082 |
| CCAGCACC | -0.246 |
| CCTTACCA | 0.019 |
| CTGTTAAC | 0.199 |
| CACCTCTA | -0.0282 |
| GTCGCGAC | 0.205 |
| CCGCAAGC | -0.0122 |
| CGGTAAGC | -0.299 |
| AGCTTAAA | -0.0312 |
| AACCTATG | 0.0809 |
| ACTGATTC | -0.00214 |
| GAAATTCA | 0.0838 |
| CTTAGCAA | -0.0183 |
| CACGTGCA | 0.115 |
| AGCTTCTG | -0.33 |
| GGCACTGA | 0.302 |
| CTAACTTC | -0.00629 |
| AACGTGCC | 0.397 |
| AATGTGCG | 0.18 |

| Sequence | PBM E-score |
| --- | --- |
| ACAAAGGC | 0.36 |
| AGAACATC | -0.16 |
| ATGAGGGC | -0.0387 |
| GCTTCAAA | -0.105 |
| GGACCTCA | -0.274 |
| GCGCTTAC | 0.0864 |
| AACAACAT | 0.324 |
| CACCCGCA | -0.206 |
| GACATAAC | 0.22 |
| CACAGAGC | 0.12 |
| AGATTTTG | 0.00781 |
| ACTCAAGT | 0.0946 |
| GGGCTACA | -0.115 |
| TGCGGACA | -0.27 |
| AGTGTAGG | 0.163 |
| AGATAGAA | -0.134 |
| ATCAACAG | 0.0788 |
| GGTATATA | 0.166 |
| AGCTCCAT | -0.0395 |
| ACACTATA | 0.0491 |
| GTCTATAA | -0.0353 |
| CATGAGGC | 0.00893 |
| TAAACCCA | 0.0875 |
| CTTATCGA | 0.0395 |
| CTCCGTGC | -0.0177 |

| Sequence | PBM E-score |
| --- | --- |
| ACAGGGAC | -0.0359 |
| CCCCTCAC | -0.199 |
| CCTAGGAC | -0.0674 |
| GAGTCAGC | -0.084 |
| GCGATGCC | -0.0132 |
| GTGAGCAA | -0.205 |
| ATTCACAC | 0.215 |
| GCTACGCA | -0.00801 |
| AAGAGCGT | -0.107 |
| AGACATGA | 0.198 |
| GGAACTTA | 0.0691 |
| GCTTCTGA | -0.232 |
| ATTGGGGC | -0.168 |
| AAGGCCCG | 0.111 |
| AGCATATG | -0.00234 |
| AAGATAGG | 0.0717 |
| ACAAATCG | -0.101 |
| ACACATTG | 0.142 |
| ACGAACAT | 0.109 |
| CGCTGTAA | 0.159 |
| CCGGGACG | -0.279 |
| CATCTCCA | -0.0528 |
| ATTTTCGG | -0.163 |
| ATTGACTG | -0.0528 |
| TTATACAA | 0.21 |

| Sequence | PBM E-score |
| --- | --- |
| GGCCTCCC | -0.302 |
| ACTCCCAT | -0.0065 |
| ACTGCAGT | -0.211 |
| AGGGCCAG | -0.21 |
| TGCTTCCA | -0.00836 |
| AGAATTCA | -0.0728 |
| CTTCTGGA | -0.172 |
| ACATCCGC | 0.0826 |
| ATCAGCCG | -0.244 |
| TGGGAGAA | -0.151 |
| ACTCCCAG | -0.198 |
| ACAGGATG | 0.00887 |
| CATCCGAC | -0.146 |
| ACAGGAGA | -0.0281 |
| GTCATCTA | 0.191 |
| GACATGCC | 0.256 |
| AGAAATCT | -0.0655 |
| GGGATTAA | 0.0843 |
| ATAAGGAA | 0.299 |
| CAATAGCG | -0.0682 |
| CTATTAAC | 0.301 |
| GTGTTGCA | 0.0418 |
| AGCCCTAC | -0.00626 |
| ACTCGGCC | -0.0939 |
| AACTCCCG | 0.00241 |

| Sequence | PBM E-score |
| --- | --- |
| TTACTCAA | 0.215 |
| CATGCCAA | 0.14 |
| ATGAAAGA | -0.0332 |
| ATGCATAC | 0.12 |
| CTTCCCCC | -0.31 |
| AAAGCGCA | -0.133 |
| CTAAAATA | 0.036 |
| AAATAATC | 0.162 |
| ACGCGTTC | 0.235 |
| TGGGCAAA | -0.0148 |
| CGACTCCG | -0.293 |
| CCACGAAA | -0.0721 |
| CCCTCCCG | -0.318 |
| GAGCCATC | -0.22 |
| ACTTGATA | 0.0522 |
| CTGCGCCC | -0.348 |
| CCTTTACC | 0.102 |
| CGATTGCG | -0.128 |
| ACAAAACA | 0.211 |
| CCGGACGC | 0.144 |
| AGCCATAG | -0.0266 |
| AGTGGTGA | -0.246 |
| GTTAGTAA | 0.0859 |
| AAGACTTG | 0.121 |
| AGTTGCAG | -0.139 |

| Sequence | PBM E-score |
| --- | --- |
| ATGTAGTG | 0.255 |
| CTCACAGA | -0.0257 |
| GTTATAAA | 0.234 |
| CAACTCTA | -0.124 |
| CGGAGATC | -0.358 |
| CGCTACAA | 0.087 |
| ACCTTATG | 0.0112 |
| GTCAATAA | 0.00788 |
| TATGATGA | -0.177 |
| AAGTAATG | 0.0523 |
| AAGCGATA | -0.13 |
| CGGACGGC | -0.222 |
| AATGCTAG | 0.00844 |
| AGTTCGCC | -0.0522 |
| ATGTGGCA | -0.205 |
| CCGGGCCA | -0.364 |
| ATAAATAC | 0.159 |
| GTAAAGCA | 0.25 |
| AGATCTAC | 0.0591 |
